# Laboratory results published in PubChem BioAssay AID588855 (National Center for Advancing Translational Sciences (NCATS), 2011).
# Screen size: about 410,000 compounds; about 5,000 (1.2%) were called active. The inconclusive results got no clear call from the source; some entries with a clear call stand among them for comparison. Calls come from the whole dose curve; as a rule, active = well fitted inhibition curve with a large enough effect; inconclusive = small, poorly fitted or top-dose-only effect; inactive = no such curve, though single readings can be large or run the other way. Potencies beside an inconclusive call are fits to weak or partial responses and may not hold up.
# Experiment: qHTS for Inhibitors of TGF-b; note: nearly all actives have a fitted effect of over 65% in size
# Conditions: HepG2 CAGA-GFP TGF-b/SMAD3 reporter, GFP fluorescence, 18 h, TGF-beta stimulated, 500 pg/mL final; series mostly up to 46.1 µM; activity, negative = inhibition: at the top concentration
# How it was run: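 Using HEPG2 CAGA-GFP reporter cells at 1000 cells/well, we pinned test compounds, stimulated with recombinant TGF-beta (500 pg/mL final) and measured total well GFP after 18 h.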
# % is set by controls: 0 for no effect and ±100 for the full control effect; potency is the fitted concentration of half-maximal effect; tags give direction and shape of the fitted curve.
Compound,"activity, negative = inhibition",Potency
O=C(NCc1ccccc1F)c1sc2ncccc2c1-n1cccc1,inactive: -7.99%,
C=CCNC(=O)c1onc(CSc2cc(C)ccc2C)c1C(=O)O,,"inconclusive: 4.47 µM [inhibitor, partial curve, poor fit]"
C=CCn1c(Cc2ccccc2)n[nH]c1=S,inactive: -4.16%,
Cc1ccc(S(=O)(=O)N2CCN(C(=O)CCOc3ccccc3C)CC2)cc1C,,"inconclusive: 35.5 µM [inhibitor, single point]"
O=C(Nc1ccn(CCCNCc2cccc3ccccc23)c(=O)n1)OCc1ccccc1,,"inconclusive: 35.5 µM [inhibitor, single point]"
O=C(O)Cn1nc(-c2ccc(F)cc2)oc1=O,inactive: 0.361%,
Cc1cc(C)cc(-n2cnc3cc(C(=O)NC4CCCCCC4)ccc32)c1,,"inconclusive: 35.5 µM [inhibitor, single point]"
Cc1ccc(CCNC(=O)c2ccc3[nH]c(C)c(C)c3c2)cc1,,"inconclusive: 15.8 µM [inhibitor, single point]"
Cn1cc(CN(CCCN2CCOCC2)C(=S)Nc2cccc(Cl)c2)c2ccccc21,,"inconclusive: 35.5 µM [inhibitor, single point]"
CCC(C(=O)Nc1cccc(S(=O)(=O)N(C)c2ccccc2)c1)c1ccccc1 (stereo unspecified),,"inconclusive: 35.5 µM [inhibitor, single point]"
Nc1nc2c(s1)CCc1c-2cnn1-c1ccccc1,,active: 17.8 µM
O=[N+]([O-])c1ccc(NNC(=S)Nc2ccccc2)cc1,,"inconclusive: 31.6 µM [inhibitor, single point]"
CSc1ncc(Cl)c(C(=O)Nc2ccc(S(=O)(=O)Nc3nccc(C)n3)cc2)n1,,inactive
CCOC(=O)C1(CC2CC2)CCN(Cc2ccc3cccc(F)c3n2)CC1,inactive: -19.7%,
CCN(C1CCCCC1)S(=O)(=O)CCNC(=O)c1ccc(OC)cc1,inactive: 2.72%,
CCCC1=Nc2cc(C(=O)NCc3ccco3)ccc2Sc2ccccc21,,"inconclusive: 25.1 µM [inhibitor, single point]"
O=[N+]([O-])c1ccc(SNc2ccccc2)c([N+](=O)[O-])c1,,"inconclusive: 0.447 µM [inhibitor, full curve, poor fit]"
CC(=O)C1=C(c2ccccc2)N(C(C)=O)n2c(nnc2C2CCCCC2)S1,,active: 11.2 µM
CC(=O)c1ccc(NC(=O)CCc2c(C)nc3c(c2C)c(=O)n(C)c(=O)n3C)cc1,,"inconclusive: 0.112 µM [inhibitor, full curve, poor fit]"
O=C(NCCN1CCN(c2cccc(Cl)c2)CC1)c1ccc(CSc2nc3ccncc3[nH]2)cc1,,"inconclusive: 11.2 µM [inhibitor, partial curve]"
CCCCN(C)CCCNC(=O)C1CCN(S(=O)(=O)CC)CC1,inactive: 0.0216%,
Cc1ccccc1N1CCN(C2CCCN(C(=O)CCC(=O)N(C)C)C2)CC1 (stereo unspecified),inactive: 6.24%,
Cc1scc(C(=O)NNC(=S)NC(C)c2ccccc2)c1C (stereo unspecified),,"inconclusive: 14.1 µM [inhibitor, single point]"
CCOc1ccc(N2C(=O)c3cccnc3C2Nc2ccc(OC)cc2)cc1 (stereo unspecified),inactive: -5.79%,

Compound,"activity, negative = inhibition",Potency
COCCNC(=O)c1sc2ncccc2c1-n1c(C)ccc1C,inactive: 14.1%,
COc1ccc(C(=O)/C=C/C(=O)N(CC(=O)NCCC(C)C)Cc2cccs2)c(O)c1,inactive: -18.8%,
FC(F)(F)c1cccc(NC(=S)Nc2cccc(NC(=S)Nc3cccc(C(F)(F)F)c3)n2)c1,,"inconclusive: 20 µM [inhibitor, single point]"
COc1cccc(/C=N/Nc2nc(C)cc(=O)[nH]2)c1OC,inactive: 0.718%,
CN(C)c1ccc(/C=C/c2cc(Cl)nc3ccccc23)cc1,,"inconclusive: 14.1 µM [inhibitor, partial curve, poor fit]"
COc1ccccc1NC(=O)Nc1nnc(C(C)c2ccccc2)s1 (stereo unspecified),,"inconclusive: 35.5 µM [inhibitor, single point]"
COc1ccc(OC)c(-c2cc(C3CCN(c4ncccc4[N+](=O)[O-])CC3)[nH]n2)c1,,"inconclusive: 35.5 µM [inhibitor, single point]"
CC(C)c1ccc(C(=O)N2CCCCC2c2cc(C(=O)NCc3cccnc3)no2)cc1 (stereo unspecified),inactive: -1.08%,
COc1ccc(S(=O)(=O)N2CCCCCC2)cc1C(=O)N(C)Cc1ccc(C)cc1,inactive: -10.8%,
CCCCNC(=O)C(CC)Sc1nc2ccccc2c(=O)n1Cc1ccco1 (stereo unspecified),,"inconclusive: 0.398 µM [inhibitor, full curve, poor fit]"
O=C1/C(=N\S(=O)(=O)c2cccs2)C([n+]2ccc(CCCc3ccccc3)cc2)=C([O-])c2ccccc21,,active: 15.8 µM
COc1ccc(C)cc1S(=O)(=O)N1CCN(C/C=C/c2ccccc2)CC1,,"inconclusive: 35.5 µM [inhibitor, single point]"
O=C(Cn1ncc(Cl)c(Cl)c1=O)N1CCc2ccccc21,,"inconclusive: 12.6 µM [inhibitor, single point]"
O=C(NCc1ccccc1)c1cc(C2CCCCN2S(=O)(=O)c2cccs2)on1 (stereo unspecified),inactive: 45.3%,
Cc1nnc(Sc2nc3c(c(=O)[nH]c(=O)n3C)n2Cc2ccccc2)s1,,"inconclusive: 35.5 µM [inhibitor, single point]"
CSc1ncc(Cl)c(C(=O)Nc2cccc(Cl)c2)n1,,"inconclusive: 35.5 µM [inhibitor, single point]"
COc1ccc(OC)c(NS(=O)(=O)c2ccc(-n3cccn3)cc2)c1,,inactive
O=S(=O)(c1ccc(Cl)cc1)N1CCOCC1,inactive: 11.9%,
CCOCCCNC(=O)N[C@@H](C)C(=O)OC,,"inconclusive: 3.55 µM [inhibitor, single point]"
CC(C(=O)Nc1nccs1)c1ccc([N+](=O)[O-])cc1 (stereo unspecified),,"inconclusive: 11.2 µM [inhibitor, single point]"
CC1(C)NC(=O)N(CC(O)CN2CCCCC2)C1=O (stereo unspecified),,"inconclusive: 0.562 µM [inhibitor, full curve, poor fit]"
Cc1cc(Br)cn2c(CC(C)(C)C)c(-c3cccc(Cl)c3)nc12,,"inconclusive: 10 µM [inhibitor, partial curve, poor fit]"
COc1ccc(/C=N/n2c(C)nc3ccccc3c2=O)cc1OC,,"inconclusive: 14.1 µM [inhibitor, single point]"
Cc1ccc(C(=O)N/C(=C\c2ccc(-c3cc(Cl)ccc3Cl)o2)C(=O)NCc2cccnc2)cc1,,"inconclusive: 22.4 µM [inhibitor, single point]"

Compound,"activity, negative = inhibition",Potency
COc1ccccc1NC(=O)C1=C(C)Nc2nc(SCc3ccccc3)nn2C1c1cccc(O)c1 (stereo unspecified),,"inconclusive: 17.8 µM [inhibitor, single point]"
COCCNC(=O)C1CCN(Cc2cc3ccccc3n2Cc2ccc(C)cc2)CC1,,"inconclusive: 35.5 µM [inhibitor, single point]"
COc1ccc(-c2coc3c(C(=O)NCC4CC4)cccc23)c(C)c1,,"inconclusive: 11.2 µM [inhibitor, partial curve]"
Clc1nssc1=Nc1ccccc1,inactive: -1.29%,
Cc1ccc(C)c(-c2csc(NC(=O)C3=COCCO3)n2)c1,inactive: -17%,
CCOc1ccc(OCCNC(=O)c2oc3ccccc3c2COC)cc1,,"inconclusive: 15.8 µM [inhibitor, single point]"
CN(CCOc1ccc(Br)cc1)C(=O)CNC(=O)c1ccc2ccccc2c1,inactive: 12%,
COc1ccc(CNC(=O)CS(=O)Cc2nc(-c3ccc(C)cc3)oc2C)cc1 (stereo unspecified),,"inconclusive: 35.5 µM [inhibitor, single point]"
Cc1cc(Br)ccc1NC(=O)CN(C)C(=O)C1CCN(c2ncnc3sc(C)c(C)c23)CC1,,"inconclusive: 35.5 µM [inhibitor, single point]"
COc1cc(C(=O)NC(=S)N(CCc2ccccc2)CCc2ccccc2)cc(OC)c1OC,,"inconclusive: 20 µM [inhibitor, single point]"
O=S(=O)(c1ccc(F)cc1)N(CCO)CC(O)Cn1c2ccccc2c2ccccc21 (stereo unspecified),,"inconclusive: 11.2 µM [inhibitor, partial curve, poor fit]"
O=C(CCCN1C(=O)/C(=C/c2ccccc2Cl)SC1=S)N1CCCC1,,"inconclusive: 35.5 µM [inhibitor, single point]"
C(#Cc1ccccc1)Cn1nnc2ccccc21,,"inconclusive: 35.5 µM [inhibitor, single point]"
COc1cc(CN2CCc3ccccc3C2)ccc1O,,active: 4.47 µM
CC(C)(C)OC(=O)NCCc1nnc(SCc2cccc(Cl)c2)o1,,active: 7.94 µM
CC1CCC/C(=C\Nc2ccc3c(c2)OCO3)C1=O (stereo unspecified),,"inconclusive: 14.1 µM [inhibitor, single point]"
COc1ccc(N2CCN(C(=O)Cc3ccc(C)cc3)CC2)cc1,,"inconclusive: 35.5 µM [inhibitor, single point]"
CCOC(=O)c1ccccc1OCc1cc(/C=N/NC(=O)c2cccnc2)ccc1OC,,"inconclusive: 20 µM [inhibitor, single point]"
COc1cccc(CN(C)C(=O)c2ccc(S(=O)(=O)Nc3ccccc3F)cc2)c1OC,inactive: -7.87%,
CC(C)(C)N(Cc1ccccc1)C(=O)COC(=O)[C@@H]1CCCN1C(=O)c1cccs1,,"inconclusive: 12.6 µM [inhibitor, single point]"
O=C(/C=C/c1ccco1)NC(=S)Nc1ccc(N2CCCC2)cc1,,"inconclusive: 11.2 µM [inhibitor, partial curve, poor fit]"
COc1cccc2c(SCC(=O)N/N=C/c3ccc(O)cc3O)cc(C)nc12,inactive: -10.6%,
CN(C)S(=O)(=O)c1cccc(NC(=O)CSc2nc3ccccc3[nH]2)c1,,"inconclusive: 35.5 µM [inhibitor, single point]"
